Measurements taken from the supplement of paper PMC4604168 (melanoma cell lines).
Some of the results follow. Most values come without repeats; read them as rough.

What was measured:
Assay in all cases: cell count relative to DMSO control; melanoma cells; higher = more viable cells
Details in all cases: library dose: low library concentration; 72 h
WM115 = tested on: WM115
WM1716 = tested on: WM1716
WM1745 = tested on: WM1745
WM3526 = tested on: WM3526
WM3619 = tested on: WM3619
WM451Lu = tested on: WM451Lu
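Also: cell number obtained by counting DAPI-stained nuclei in high-throughput microscope images with image analysis software, screen run in 1,536-well plates.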

Compound	cell count (WM115) [%]	cell count (WM1716) [%]	cell count (WM1745) [%]	cell count (WM3526) [%]	cell count (WM3619) [%]	cell count (WM451Lu) [%]
C#Cc1cccc(Nc2ncnc3cc(OCCOC)c(OCCOC)cc23)c1 [erlotinib] + CC(C)(C)c1cnc(CSc2cnc(NC(=O)C3CCNCC3)s2)o1 [SNS-032] (first compound 0.8 µM, partner dose 0.01 µM)	103	94.2	84.3	111	130	108
O=C(CCCCCCC(=O)Nc1ccccc1)NO [vorinostat] + OCCn1cc(-c2cnc3nnn(Cc4ccc5ncccc5c4)c3n2)cn1 [PF04217903] (first compound 0.08 µM, partner dose 1 µM)	100	112	116	86.4	99.4	71
OCc1c[nH]c2ccccc12 [Indole-3-carbinol] + O=C(Nc1ccccc1)c1cc([N+](=O)[O-])ccc1Cl [GW9662] (first compound 0.8 µM, partner dose 2 µM)	95.9	111	86	118	71.6	92.9
Clc1ccc(Nc2nnc(Cc3ccncc3)c3ccccc23)cc1 [vatalanib] + N#Cc1c(O)c2c(-c3ccc(-c4ccccc4O)cc3)csc2[nH]c1=O [A769662] (first compound 2 µM, partner dose 2 µM)	103	92.6	89.4	91.1	85.6	57.4
Nc1cccc2c1CN(C1CCC(=O)NC1=O)C2=O (stereo not given) [lenalidomide] + Cc1cc(N2CCOCC2)cc2[nH]c(-c3c(NC[C@@H](O)c4cccc(Cl)c4)cc[nH]c3=O)nc12 [BMS536924] (first compound 1 µM, partner dose 0.2 µM)	91.7	95.8	76.1	83.9	93.1	95.6
